Laboratory results: PubChem BioAssay (NCI)
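These data come from cells grown in 96-well plates and exposed to compound for 48 hours at five concentrations. The concentration for 50% growth inhibition is given as GI50. TGI marks complete inhibition of growth.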 Bridge positions count the residues as written; N and C are the ends. Square brackets hold non-standard residues; d marks the D form. Peptide text beside a SMILES is read from it. * marks the point of attachment. Cbz = O=C(OCc1ccccc1)*; Aib = CC(C)(N)C(=O)O; OBn = c1ccc(CO*)cc1; βAla = NCCC(=O)O

test system: NCI-H322M lung; experiment: DTP human tumour cell line panel, 48 h

Compound | TGI | GI50
CC(=O)[C@]1(O)Cc2c(O)c3c(c(O)c2C(OC2OC(C)C(O)C(O)C2F)C1)C(=O)c1ccccc1C3=O (stereo partly specified) | 31 µM | –
COc1ccccc1N1C(=O)/C(=C\c2cccc(Oc3ccccc3)c2)SC1c1ccccc1 (stereo unspecified) | > 100 µM | –
CSc1nc(Cl)c2c(n1)Sc1nc3cc4c(cc3n1C2O)OCO4 (stereo unspecified) | > 100 µM | –
O=c1[nH]nc(-c2cccc(Br)c2)[nH]1 | > 100 µM | –
COC(=O)c1ccc2c(c1)n(Cc1ccc3ccccc3c1)c[n+]2Cc1ccc2ccccc2c1 | 4.57 µM | 1.6 µM
Cn1cc(C2=C(c3cn(C)c4c(N)cccc34)C(=O)NC2=O)c2ccccc21 | > 24.1 µM | 3.68 µM
O=C(C[C@@H](C(=O)NCc1cccc(C(F)(F)F)c1)N1C(=O)[C@@H](N2C(=O)OC[C@@H]2c2ccccc2)[C@H]1/C=C/c1ccccc1)NC1CCN(Cc2ccccc2)CC1 | 39.2 µM | 15.8 µM
CO/N=C(\C(=O)Nc1cncs1)c1csc(NC(c2ccccc2)(c2ccccc2)c2ccccc2)n1 | > 10 µM | –
NCCc1nc(-c2nc(C(=O)O)cs2)cs1 | > 100 µM | –
COc1ccc(-n2c(SCc3cc(OC)c(OC)c(OC)c3)nc3ccc(C)cc3c2=O)cc1 | > 100 µM | > 100 µM
O=C(NCCCNC(=O)c1ccc2cc(O)c(O)cc2c1)c1ccc2cc(O)c(O)cc2c1 | > 100 µM | –
CC(C)CC(N)C(=O)O (stereo unspecified) | > 100 µM | –
COc1ccc2c(c1)CCCc1cn[nH]c1-2 | > 100 µM | –
COc1ccc(-n2cc(-c3cc(OC)c(OC)c(OC)c3)[nH]c2=S)cc1OC | > 100 µM | > 100 µM
Cc1nc(N)c(N2CCNCC2)c(=O)[nH]1 | > 100 µM | –
CC12CCCC(CC(=O)c3[nH]c4ccccc4c31)C2 (stereo unspecified) | > 100 µM | 5.77 µM
CC(C)=CC(=O)N1CCN(C(=O)C=C(C)C)CC1 | > 100 µM | –
Oc1cc(O)c2c(c1)O[C@H](c1cc(O)c(O)c(O)c1)[C@H](O)C2 | > 100 µM | –
O=C1C2=C(CC3C(C2)C3(Br)Br)C(=O)C2=C1CC1C(C2)C1(Br)Br (stereo unspecified) | > 100 µM | –
N#Cc1cnsc1 | > 100 µM | –
CCSc1nc(N2CCOCC2)c2cn[nH]c2n1 | > 100 µM | –
COc1cccc(NCc2nnc(Nc3ccc(Cl)cc3)c3ccccc23)c1 | 7.85 µM | 1.4 µM
Brc1ccc2c(-c3nc(-c4c[nH]c5ccc(Br)cc45)cs3)c[nH]c2c1 | 15.9 µM | –
CCC(C)(O)c1cn(-c2cccc(S(=O)(=O)O)c2)nn1 (stereo unspecified) | > 100 µM | –

Compound | TGI | GI50
N#C/C(C(=S)Nc1ccccc1)=C1/NN=C2c3ccccc3C(=O)NN21 | > 100 µM | 33.7 µM
O=P(c1ccccc1)(c1ccccc1)C(NCc1ccccc1)c1ccc(F)cc1 (stereo unspecified) | 28.8 µM | –
COc1ccc(OC(=O)O[C@H]2[C@H](O[C@H]3[C@@H](O)COC(O[C@H]4C[C@H]5[C@@H]6CC=C7C[C@@H](O)CC[C@]7(C)[C@H]6CC[C@]5(C)[C@H]4[C@H](C)C(=O)CCC(C)C)[C@@H]3OC(C)=O)OC[C@@H](O)[C@@H]2O)cc1 (stereo partly specified) | 23.7 µM | 9.1 µM
COc1ccc(-c2nc(-c3nc4ccc(C)cc4[nH]3)c3ccccn23)cc1 | 7 µM | 2.38 µM
Nc1nc(Cl)cc(NCC2(CO)COC2)n1 | > 100 µM | –
COc1cc([N+](=O)[O-])ccc1NC(=O)C(F)(F)F | > 100 µM | –
O=P(O)(O)CN1CCN(CP(=O)(O)O)CCN(CP(=O)(O)O)CCN(CP(=O)(O)O)CC1 | > 100 µM | –
Cc1cc(O)c(/C=N/C(=S)NCCc2ccccc2)c(=O)o1 | > 100 µM | –
O=C(CCCSc1nc(-c2ccc(Cl)cc2)cc(-c2ccc(Cl)cc2)n1)NO | 11.3 µM | 0.597 µM
Cc1ccccc1Nc1cn(COCc2ccccc2)c(=O)[nH]c1=O | > 100 µM | –
CCN(CC)Cc1cc(Nc2ccnc3ccc4c(nnn4C)c23)ccc1O | 37.8 µM | –
O=C(CC(=O)N1N=C(c2ccccc2)C(N=Nc2ccc(Cl)cc2)C1=O)Nc1ccccc1Cl (stereo unspecified) | > 100 µM | –
CCCN(CCCCC(NC(C)=O)C(=O)NCc1ccccc1)C(=O)N(CCCl)N=O (stereo unspecified) | > 100 µM | –
CC(=O)OC[C@H]1[C@@H]2C(CC[C@]13CO3)OC(=O)CC(C)[C@]2(C)CCc1ccoc1 (stereo partly specified) | > 100 µM | –
COc1ccc(-c2c(C#N)c(NC(=S)NC(=O)c3ccccc3)nc3c2CCCC3)cc1OC | > 100 µM | –
S=C(/N=c1/sc(Nc2ccccc2)nc2sc3c(c12)CCCC3)Nc1ccccc1 | > 62.5 µM | –
COc1ccc(-c2c(C(C)=O)c(-c3ccccc3)n(C3OC(COC(C)=O)C(OC(C)=O)C(OC(C)=O)C3OC(C)=O)c(=S)c2C#N)cc1 (stereo unspecified) | > 100 µM | –
O=C(/C=C/c1ccccc1Cl)c1ccccc1Cl | > 100 µM | –
CCC1(O)C(=O)OCc2c1cc1n(c2=O)Cc2cc3c(N)cccc3nc2-1 (stereo unspecified) | 7.41 µM | –
N#CCCN(c1ccc(/C=C2\N=C(c3ccc(Cl)cc3)OC2=O)cc1)S(=O)(=O)c1ccccc1 | > 100 µM | –
CC(=O)[O][Hg][c]1c(C)c(C)c(C)c(C)c1C | 5.99 µM | 2.25 µM
O=[N+]([O-])c1ccccc1N=Nc1c(O)sc2ccccc12 | > 100 µM | –
C=C1C(=O)O[C@H]2[C@H]1CC/C(COC(=O)/C=C\C(=O)NCc1ccc(Cn3c(=O)sn(-c4ccc(C#N)cc4)c3=O)cc1)=C\CC[C@@]1(C)O[C@@H]21 | 8.95 µM | 2.76 µM
CC[C@@H]1/C=C/C=C/C[C@H](C)[C@@H](O)[C@](C)(O)C(=O)[C@H](C)[C@@H](O)[C@H](C)C(=O)[C@H](C)[C@@H](O)[C@H](C)/C=C/C(=O)O[C@H]2[C@@H](C)[C@@H](CC1)O[C@]1(O[C@H](CC(C)O)[C@H](C)CC1=O)[C@@H]2C (stereo partly specified) | > 25 µM | –

Compound | TGI | GI50
CC(C)(C)C1=CC(=CC=C2C=CN(CCCCCCCCCCCO)C=C2)C=C(C(C)(C)C)C1=O | 7.21 µM | –
CC/C(=N/O)c1ccc(Br)s1 | > 100 µM | –
COC(=O)[C@]12CCC(C)(C)C[C@H]1C1=CC[C@@H]3[C@@]4(C)C/C(=C/c5cccnc5)C(=O)C(C)(C)[C@@H]4CC[C@@]3(C)[C@]1(C)CC2 | 65.3 µM | 17 µM
CCOC(=O)[C@H]1Nc2ccc(C)cc2C2c3ccccc3CC21 (stereo partly specified) | > 100 µM | –
CNC1C(=O)C(C)C(O)(C(CC(C)C(O)/C=C/C=C/CNC(=O)C(C)(C)C(O)\C(C)=C/C=C\C=C\Cc2cnc(C)o2)OC)C12C(=O)OC2COC (stereo unspecified) (tested in a mixture with another compound) | > 100 µM | –
O=C(CCc1ccc(O)cc1)NCCc1ccc(O)cc1 | > 100 µM | –
O=C(NC1CCCCCC1)C1C(=O)N(C2CCCCCC2)C(=O)/C1=N\O (stereo unspecified) | > 100 µM | –
O=c1c2ccccc2nnn1-c1n[nH]c2ccccc12 | > 100 µM | –
CC#CC(=O)Nc1ccccc1CC(c1c[nH]c2ccccc12)c1c[nH]c2ccccc12 | 70.6 µM | –
COc1cc(Cc2cc(OC)c(OC)c(OC)c2)ccc1O | > 100 µM | –
CC[C@]12C=CCN3CC[C@@]4(c5ccc(OC)cc5N(C)[C@H]4[C@@](O)(C(=O)OC)[C@@H]1OC(C)=O)[C@@H]32 | > 200 µM | –
COc1ccc(C(=O)/C=C/c2cccnc2Nc2cc(OC)c(OC)c(OC)c2)cc1 | 19.1 µM | 5.69 µM
COC(=O)C1(c2ccc(N(C)C)cc2OC)CCCN(C(=O)Oc2ccccc2[N+](=O)[O-])CCc2c1[nH]c1ccccc21 (stereo unspecified) | > 100 µM | –
C[C@]12CC[C@@H]3c4ccc(Oc5nc(N6CC6)nc(N6CC6)n5)cc4CC[C@H]3[C@@H]1CCC2=O | 17.9 µM | 5.78 µM
Cc1cc(NS(=O)(=O)c2ccc(NC(=O)c3cccc4c(=O)c5ccccc5[nH]c34)cc2)no1 | > 100 µM | –
O=S(O)CCCCSSCCCCSSCCCCS(=O)O | > 100 µM | –
C[C@]12CC[C@@H]3c4ccc(O)cc4CC[C@H]3[C@@H]1CC[C@@H]2NS(=O)(=O)c1ccc(C(F)(F)F)cc1 | 15 µM | 3.84 µM
COC(=O)c1cc2c(c(C(=O)OC)c1O)C(=O)C=CC2=O | > 100 µM | –
CNC(=O)N1CCN(C(=O)NC)CCN(C(=O)NC)CC1 | > 100 µM | –
CCCCCCCCCCC(O)C1CCC(C2CCC(C(O)CCCCC(O)CCCCCC(O)CC3=CC(C)OC3=O)O2)O1 (stereo unspecified) | > 25 µM | 7.57 µM
Clc1cccc(Cl)c1C1SCC2=Nc3ccccc3CN21 (stereo unspecified) | 69.6 µM | –
CCCCC/C=C/C/C=C/CCCCCCCC1=NC(C)(C)CN1C(C)C | 4.21 µM | 1.96 µM
COC12C=CC(CC1)C(C)(C)C2=O (stereo unspecified) | > 100 µM | –
COc1ccc(OC)c(/C=C/NC=O)c1 | > 100 µM | –

Compound | TGI | GI50
CC(=O)c1cccc2c1CC1(C2)Cc2ccc3c(c2C1=O)CCC3 (stereo unspecified) | > 100 µM | –
CC1=C2C3=C(C)C(=O)C(C)(C)CC[C@@]3(C)[C@]2(C)CCC(C)(C)C1=O | > 100 µM | –
Cc1cc(C)cc(Nc2cc(C)nc3nc(C(F)(F)F)nn23)c1 | > 100 µM | > 100 µM
CC(C(=O)N1c2ccccc2Sc2ccccc21)N1c2ccccc2Sc2ccccc21 (stereo unspecified) | > 100 µM | –
Nc1ccc(C(=O)Nn2c(-c3ccccc3)nc3ccccc3c2=O)cc1 | > 100 µM | –
CCCCCCCCCCCCCCCCOP(=O)(O)Oc1ccc(/C=C\c2ccc(OP(=O)(O)OCCCCCCCCCCCCCCCC)cc2)cc1 | > 100 µM | –
N#CCCN(CCC#N)c1ccc(/C=C2\N=C(CN3C(=O)c4ccccc4C3=O)OC2=O)cc1 | > 100 µM | –
Cc1c2c(nn1-c1ccc(S(=O)(=O)/N=C3\SCC(=O)N3C(=O)c3ccccc3)cc1)-c1ccccc1CC2 | > 100 µM | > 100 µM
CN(C)C(=S)/N=c1\ss/c(=N\C(=S)N(C)C)n1-c1ccc2c(c1)OCO2 | > 100 µM | –
C/C(=N\NC(=S)N1CC2CCC(CC2)C1)c1ccncn1 | 5.25 µM | –
O=C1c2ccccc2S[C@@H](O)[C@@H]2CCCN12 | > 100 µM | –
CC1(C)NC(=O)C(NC(=O)C(CC(=O)OCc2ccccc2)NC(=O)OCc2ccccc2)CCCCNC(=O)CCNC1=O (stereo unspecified) (Cbz-D(OBn)K[Aib][βAla]; lactam 2-C; configuration not given here) | > 100 µM | –
Cc1c(Cc2ccccc2)n(COCCCO)c(=O)[nH]c1=O | > 100 µM | –
NC(N)=N/N=C/c1c(Cl)nc2sccn12 | 88 µM | –
Cc1[nH]c(N=Nc2ccccc2)nc1N=Nc1ccccc1 | 9.02 µM | 2.28 µM
C=CCNc1ccc(C)cc1 | > 100 µM | –
Cc1ccc(NC(=O)C2C(=O)N(c3ccc(C)c(C)c3)C(=O)/C2=N/O)cc1C (stereo unspecified) | > 100 µM | –
NCC(=O)NC(CCCC(NC(=O)CN)P(=O)(O)O)P(=O)(O)O (stereo unspecified) | > 100 µM | –
Clc1ccc2c(NCCCCN=Cc3ccccc3)ccnc2c1 | 48.5 µM | –
CN(C)CC(CN(C)C)c1ccccn1 | > 100 µM | –
CCOC(=O)/C(O)=C(/C=NC(=S)c1ccncc1)C(=O)OCC | > 100 µM | –
CSc1ccc(C2C(Cl)C(=O)N2NC(=O)c2c(Cl)c(Cl)c(Cl)c(Cl)c2-c2nc3ccccc3[nH]2)cc1 (stereo unspecified) | > 100 µM | –
